Source: article PMC4336329 (PLoS ONE, 2015)
Out of some 310,000 compounds screened, about 14,000 (4.5%) showed an effect of 50% or more. Effects have a minus sign here. Some of the results follow.

The compounds below were run against human ether-à-go-go-related gene (hERG) potassium channel (human, UniProt Q12809) (assay: primary screen, population patch clamp on CHO cells stably expressing hERG).
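Note: peak tail current of the secondary pulse compared with the same well before compound.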

human ether-à-go-go-related gene (hERG) potassium channel, sequence (Q12809 whole entry, looked up): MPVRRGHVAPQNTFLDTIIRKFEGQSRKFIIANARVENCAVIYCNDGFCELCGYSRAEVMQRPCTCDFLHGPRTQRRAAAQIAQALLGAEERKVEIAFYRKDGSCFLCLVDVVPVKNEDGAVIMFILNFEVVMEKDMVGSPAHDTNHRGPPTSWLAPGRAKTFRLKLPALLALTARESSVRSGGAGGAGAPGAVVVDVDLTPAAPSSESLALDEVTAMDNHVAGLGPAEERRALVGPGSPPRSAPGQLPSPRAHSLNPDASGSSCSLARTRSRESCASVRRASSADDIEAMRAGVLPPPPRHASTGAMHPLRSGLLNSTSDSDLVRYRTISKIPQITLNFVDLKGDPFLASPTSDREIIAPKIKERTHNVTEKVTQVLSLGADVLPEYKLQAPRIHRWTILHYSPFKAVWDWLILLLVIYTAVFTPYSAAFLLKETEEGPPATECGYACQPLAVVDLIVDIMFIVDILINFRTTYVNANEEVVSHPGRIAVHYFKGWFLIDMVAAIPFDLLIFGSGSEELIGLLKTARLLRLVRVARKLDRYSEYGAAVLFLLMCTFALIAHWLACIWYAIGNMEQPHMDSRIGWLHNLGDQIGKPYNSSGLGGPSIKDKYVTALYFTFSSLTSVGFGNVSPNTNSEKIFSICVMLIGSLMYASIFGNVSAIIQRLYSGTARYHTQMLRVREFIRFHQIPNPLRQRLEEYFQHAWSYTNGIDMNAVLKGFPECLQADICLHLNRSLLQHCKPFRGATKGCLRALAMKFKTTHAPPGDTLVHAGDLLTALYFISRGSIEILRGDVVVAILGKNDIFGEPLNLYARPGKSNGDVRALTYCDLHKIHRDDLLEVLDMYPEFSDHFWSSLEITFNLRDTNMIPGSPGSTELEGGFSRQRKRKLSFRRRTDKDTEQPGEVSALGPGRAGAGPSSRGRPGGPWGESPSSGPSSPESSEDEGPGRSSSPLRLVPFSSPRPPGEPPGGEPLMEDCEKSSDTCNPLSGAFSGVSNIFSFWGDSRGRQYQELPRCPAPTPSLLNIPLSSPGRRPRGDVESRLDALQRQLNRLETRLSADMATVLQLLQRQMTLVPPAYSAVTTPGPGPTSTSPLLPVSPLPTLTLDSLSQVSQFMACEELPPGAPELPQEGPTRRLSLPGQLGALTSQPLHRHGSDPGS

| SMILES | hERG current change (%, negative = inhibition) at 10uM |
| --- | --- |
| CCCCOC(=O)CCCc1ccc([N+](=O)[O-])cc1[N+](=O)[O-] | -52% |
| CN(C)/C=C/C(=O)c1ccc(Cl)cc1Cl | 6.47% |
| CCOC(=O)COc1coc(CN2CCN(c3ccccc3)CC2)cc1=O | 9.43% |
| CC1CC(=O)C2=C(C1)Nc1ccccc1SC2c1ccc(F)cc1 (centres unmarked) | -0.969% |
| CCn1c(/C=N/c2nc3ccccc3n2C)nc2ccccc21 | -4.66% |
| O=C(OCCNC(=O)c1ccc2ccccc2n1)c1cccnc1 | -3.97% |
| Cc1cc(-c2csc(NC(=O)c3ccccc3C(F)(F)F)n2)c(C)n1Cc1ccccc1 | 16.7% |
| O=C(NCCc1ccccc1)c1ccc(NCC2CCCO2)c([N+](=O)[O-])c1 (centres unmarked) | -68.9% |
| CC(=O)c1cccc(NC(=O)CC2S/C(=N/N=C/c3ccccc3)NC2=O)c1 (centres unmarked) | 0.15% |
| Cc1ccc2[nH]c(=O)c3cc(C(=O)N(CCCOC(C)C)Cc4ccco4)sc3c2c1 | -4.27% |
| CCOC(=O)c1cnc(SCc2cccc3ccccc23)nc1N | -17.4% |
| O=C(COc1ncnc2sccc12)N1CCN(S(=O)(=O)c2ccc(Cl)cc2)CC1 | -15.4% |
| COc1ccccc1C(=O)NC(=O)COC(=O)Cc1ccc(F)cc1 | 9.62% |
| Cc1cc(C(=O)N(C)CC(=O)Nc2cccc(F)c2)no1 | 14% |
| CCC1CCCCN1C(=O)Cn1c(C(=O)OC)cc2ccsc21 (centres unmarked) | -0.484% |
| NC(=O)Cn1cc(C(=O)c2ccccc2)c2ccccc21 | 8.54% |
| Cc1ccc(/C=N/NC(=S)N2CCOCC2)cc1 | 2.28% |
| CCOC(=O)N1CCN(CC(O)c2c[nH]c3ccccc23)CC1 (centres unmarked) | 15.6% |
| CCS(=O)(=O)Nc1ccc(C2=NN(S(=O)(=O)CC)C(c3cccs3)C2)cc1 (centres unmarked) | -9.32% |
| COCCNC(=O)CN(C(=O)CCC(=O)Nc1ccccn1)c1ccc(C)c(C)c1 | 16% |
| CC(C)CC(=O)n1sc(NC(=O)c2ccccc2)nc1=O | 3.03% |
| Cc1ccccc1Cn1cnc2c(cnn2C(C)(C)C)c1=O | -9.6% |

| SMILES | hERG current change (%, negative = inhibition) at 10uM |
| --- | --- |
| O=S(=O)(NCC(c1cccnc1)N1CCN(c2ccc(F)cc2)CC1)c1ccccc1 (centres unmarked) | -53.2% |
| CCc1cc(=O)oc2c(C)c(OCC(=O)N3CCCc4ccccc43)ccc12 | -11.2% |
| O=C(NCCCN1CCOCC1)C1COc2ccccc2O1 (centres unmarked) | 33.4% |
| COc1ccc(C(=O)C2CCCN(S(=O)(=O)c3ccc(C(C)=O)cc3)C2)c(C)c1 (centres unmarked) | -11% |
| O=C(/C=C/c1ccc2c(c1)OCO2)NCc1ccncc1 | 9.85% |
| O=C(CCN1C(=O)[C@@H]2Cc3ccccc3CN2C1=O)N[C@@H](Cc1ccccc1)C(=O)O | 8.75% |
| C[C@]12CC[C@@H]3c4ccc(O)cc4C(=O)C[C@H]3[C@@H]1CC[C@@H]2O | -52.7% |
| CC(C)(C)C(=O)c1cnc(Nc2ccccc2)s1 | -3.28% |
| COc1ccc(-c2nc(S(=O)(=O)c3ccc(C)cc3)c(N3CCCC3)o2)cc1 | 17.2% |
| O=C(CSc1nnc2c(n1)[nH]c1ccc(S(=O)(=O)N3CCOCC3)cc12)Nc1ccc(F)c(F)c1 | -10.5% |
| O=C(O)c1cc(-c2ccco2)nc2ccccc12 | 18.4% |
| O=C(Nc1ccc2nsnc2c1)N1CCCCC1 | 22.2% |
| Cc1ccnc2nc(C(=O)Nc3cc(Cl)ccc3N3CCOCC3)nn12 | -10.3% |
| CC(C)NC(=O)COC(=O)c1ccc(O)cc1 | 4.9% |
| CCc1nc(SCC(=O)NCC2CCCO2)c2c(=O)n(C)c(=O)n(C)c2n1 (centres unmarked) | 4.55% |
| CCOC(=O)CC(=O)CSc1ncnc2c1nnn2-c1ccccc1 | 20.3% |
| CC(C)OC(=O)c1cccc(C(=O)O)n1 | 9.43% |
| CCOc1ccc(-n2c(SCC(=O)Nc3cc(C)on3)nc3c([nH]c4ccccc43)c2=O)cc1 | -4.25% |
| COc1cccc(Nc2ncnc3nc[nH]c23)c1 | -1.1% |
| CC(C)(C)NC(=O)NC(=O)COC(=O)Cn1c(C(F)(F)F)nc2ccccc21 | 20.9% |
| O=C(c1ccc(N2CCCCC2)c([N+](=O)[O-])c1)N1CCC2(CC1)OCCO2 | -40% |
| CCc1ccc(NC(=O)C(=O)NNC(=O)c2ccc(OC)cc2)cc1 | 5.66% |
